Common to all, as to assay type: toxicity, cell-based
One series relates to Fibroblast. In words: Multiplex assay against human fibroblast. Put shortly:
(§1)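 On a CQ1 microscope at 37°C and 5% CO2, live cells were imaged after compound addition. They had been stained at seeding with Hoechst33342, BioTracker Green Microtubule Cytoskeleton Dye, MitoTracker Red and Annexin V Alexa Fluor 680. CellPathfinder machine-learning gating assigned cells to Hoechst high-intensity objects or normal cells, normal cells to healthy, pyknosed or fragmented nuclei, and pyknosed cells to mitotic or apoptotic. Tubulin, mitochondrial-mass and membrane-permeability phenotypes are per cents of healthy-nucleus cells.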

In a further series the test system is HEK-293T. In words: Multiplex assay against HEK293T. Conditions: human. Put shortly: as §1
The test system of a further series is U2OS. In words: Multiplex assay against U2OS. The settings on record: human. In a few lines: as §1
Where [1] appears, read: 24 h, 10 µM, compound concentration 10 uM.
[2] abbreviates: 48 h, 1 µM, compound concentration 1 uM.
Setting [3] is: 48 h, 10 µM, compound concentration 10 uM.
Setting [4] is: 12 h, 1 µM, compound concentration 1 uM.
Setting [5] is: 12 h, 10 µM, compound concentration 10 uM.
Setting [6] is: 24 h, 1 µM, compound concentration 1 uM.

Each structure is given as a SMILES string. A number of entries come with more than one value. They are shown here; other results are not. The source may hold further records. The records of an entry repeat one measurement (runs, samples, wells, individuals or studies).

For the compound `CC(=O)NCC(=O)N1[C@@H]2CC[C@H]1c1ccc(Nc3ncc(C(F)(F)F)c(NC4CCC4)n3)cc12` [PF-03814735], the “Population Membrane Permeable-Phenotype (%)” value is 9.72% and 35.29% with Fibroblast (setting [1]); 4.81% and 17.86% in the series with Fibroblast (setting [3]). Also, the “Population Mitochondria Different-Phenotype (%)” value in the series on Fibroblast (setting [1]) was 8.33% and 36.47%; in the series with Fibroblast (setting [2]), 17.16% and 3.57%; in the series on HEK-293T (setting [2]), 39.06% and 9.43%; in the series with U2OS (setting [5]), 0.47% and 32.2%; with U2OS (setting [1]), 3.12% and 28.12%. For the same compound, the “Population Mitotic Cells (%)” value with Fibroblast (setting [1]) was 60.87% and 9.68%; with Fibroblast (setting [2]), 90.91% and 16.67%; in the series with Fibroblast (setting [3]), 63.16% and 16.22%; in the series with U2OS (setting [3]) it was 21.03% and 6.59%. Moreover, the “Population Apoptotic (%)” value in the series on Fibroblast (setting [2]) was 9.09% and 83.33%. The “Population Tubulin-Different-Phenotype (%)” value in the series on Fibroblast (setting [3]) is 20.19% and 73.21%; in the series with HEK-293T (setting [4]) it was 8.44% and 45%; in the series on HEK-293T (setting [6]) it was 22.27% and 6%; with HEK-293T (setting [1]) it was 83.16% and 22.22%; in the series with HEK-293T (setting [2]), 3.65% and 50%; with HEK-293T (setting [3]) it was 7.53% and 46.67%. Further, the “Population Tubulin-Different-Phenotype (%)” value was 20.83% and 6.25% in the series with U2OS (setting [1]); 59.18% and 13.64% in the series on U2OS (setting [3]). Also, the “Population Healthy Nuclei (%)” value in the series on HEK-293T (setting [4]) was 55.4% and 13.33%; in the series with HEK-293T (setting [5]) it was 39.87% and 9.73%; with HEK-293T (setting [1]) it was 46.8% and 7.2%. The “Population Pyknosed Nuclei (%)” value in the series on HEK-293T (setting [2]) was 7.47% and 26.85%.

`Nc1nccc(-c2ccn3c(N)nccc23)n1`: the “Population Fragmented Nuclei (%)” value in the series with Fibroblast (setting [4]) is 15.53% and 3.21%. In addition, the “Population Tubulin-Different-Phenotype (%)” value was 4.57% and 18.62% in the series on Fibroblast (setting [2]); 5.14% and 19.72% with Fibroblast (setting [3]); 4.2% and 33.33% in the series with HEK-293T (setting [4]); 5.15% and 20.59% with HEK-293T (setting [5]); 2.41% and 38.95% in the series with HEK-293T (setting [2]); 1.31% and 28.87% in the series with HEK-293T (setting [3]). Moreover, in the series on Fibroblast (setting [3]), the “Population Mitochondria Different-Phenotype (%)” value was 11.21% and 0.92%. For the same compound, the “Total Cell Count” value with HEK-293T (setting [6]) was 471 and 144; in the series with HEK-293T (setting [2]), 929 and 150; in the series on HEK-293T (setting [3]), 536 and 143; with U2OS (setting [4]), 439 and 138; with U2OS (setting [6]), 586 and 175; in the series with U2OS (setting [2]), 1017 and 265. The “Total Cell Count” value in the series with U2OS (setting [3]) was 1003 and 290. Also, the “Population Pyknosed Nuclei (%)” value in the series with HEK-293T (setting [2]) was 5.39% and 32.21%.

For the compound `Cc1[nH]nc2ccc(-c3cncc(OCC(N)Cc4c[nH]c5ccccc45)c3)cc12` (stereo unspecified), the “Population Mitotic Cells (%)” value with Fibroblast (setting [1]) was 34.06% and 6.62%; with Fibroblast (setting [3]), 59.57% and 4.55%; in the series with HEK-293T (setting [1]) it was 19.7% and 3.36%. For the same compound, the “Population Healthy Nuclei (%)” value was 29.11% and 8.23% in the series on HEK-293T (setting [4]); 19.81% and 4.61% in the series on HEK-293T (setting [6]). Further, the “Population Mitochondria Different-Phenotype (%)” value with HEK-293T (setting [4]) is 31.68% and 7.69%; in the series with U2OS (setting [4]), 1.78% and 36.11%; with U2OS (setting [6]), 0.79% and 22.22%. In addition, the “Population Tubulin-Different-Phenotype (%)” value in the series with HEK-293T (setting [4]) is 6.93% and 38.46%; in the series with HEK-293T (setting [5]), 66.67% and 20%; in the series on HEK-293T (setting [6]), 11.11% and 42.86%; with HEK-293T (setting [2]), 1.52% and 25%. Moreover, the “Population Membrane Permeable-Phenotype (%)” value with U2OS (setting [1]) is 0% and 50%; in the series on U2OS (setting [2]), 0.88% and 14.29%.

As to `CN1CCN(c2ccc(Nc3c4ccccc4nc4ccccc34)cc2)CC1.Cl.Cl.O`, the “Population Mitochondria Different-Phenotype (%)” value in the series with Fibroblast (setting [5]) was 47% and 13%. Further, the “Population Mitotic Cells (%)” value in the series on Fibroblast (setting [5]) is 8% and 33%; with Fibroblast (setting [3]), 31% and 0%; with HEK-293T (setting [3]), 0% and 33%. In addition, the “Population Tubulin-Different-Phenotype (%)” value in the series on Fibroblast (setting [6]) is 12% and 39%. Besides, the “Population Apoptotic (%)” value in the series with Fibroblast (setting [3]) is 68% and 0%. Also, the “Population Membrane Permeable-Phenotype (%)” value in the series with U2OS (setting [2]) is 6% and 19%. The “Population Pyknosed Nuclei (%)” value in the series with U2OS (setting [3]) was 15% and 4%.

`COC[C@@H](CC(C)C)NC1=N/C(=C\c2ccc3ncsc3c2)C(=O)N1C`: the “Population Apoptotic (%)” value with Fibroblast (setting [5]) was 12.16% and 48.48%; with HEK-293T (setting [3]), 78.72% and 21.57%; in the series with U2OS (setting [1]), 8.33% and 25%. In addition, the “Population Mitochondria Different-Phenotype (%)” value in the series with Fibroblast (setting [1]) was 3.54% and 16.3%; in the series on HEK-293T (setting [4]), 34.03% and 4.88%; in the series on U2OS (setting [5]), 0.33% and 24.11%; in the series on U2OS (setting [1]), 1.28% and 22.22%. The “Population Tubulin-Different-Phenotype (%)” value was 11.39% and 39.37% in the series on Fibroblast (setting [2]); 2.63% and 50.68% in the series on HEK-293T (setting [2]). In addition, the “Population Pyknosed Nuclei (%)” value is 17.7% and 54.82% in the series with HEK-293T (setting [6]); 6.01% and 35.56% with HEK-293T (setting [2]). Besides, the “Total Cell Count” value with HEK-293T (setting [2]) is 510 and 147. Moreover, the “Population Mitotic Cells (%)” value in the series on HEK-293T (setting [3]) is 21.28% and 78.43%. The “Population Healthy Nuclei (%)” value in the series with U2OS (setting [5]) was 49.11% and 12.53%; in the series with U2OS (setting [1]), 42.5% and 10.27%.

In the case of `C[C@H](C[C@H](N)C(=O)O)C(=O)O` [2S,4R-4-METHYLGLUTAMATE], in the series on Fibroblast (setting [5]), the “Population Membrane Permeable-Phenotype (%)” value was 12.39% and 1.63%. Further, the “Population Apoptotic (%)” value with Fibroblast (setting [6]) is 9.09% and 31.25%; in the series with HEK-293T (setting [2]) it was 6.52% and 23.68%. In addition, the “Population Mitochondria Different-Phenotype (%)” value in the series on Fibroblast (setting [2]) was 13.04% and 2.67%; in the series on Fibroblast (setting [3]), 15.92% and 2.84%. Besides, the “Population Healthy Nuclei (%)” value with HEK-293T (setting [4]) was 61.19% and 13.33%; in the series with HEK-293T (setting [5]) it was 54.39% and 11.63%. For the same compound, the “Population Tubulin-Different-Phenotype (%)” value was 4.39% and 50% with HEK-293T (setting [4]); 0.93% and 43.86% in the series on HEK-293T (setting [2]); 0.62% and 14.52% in the series on HEK-293T (setting [3]). Moreover, the “Population Pyknosed Nuclei (%)” value in the series on HEK-293T (setting [6]) was 22.6% and 70.99%; with HEK-293T (setting [1]), 18.38% and 58.71%; with HEK-293T (setting [2]) it was 10.11% and 38.97%. The “Total Cell Count” value in the series on HEK-293T (setting [6]) was 555 and 162; in the series with HEK-293T (setting [2]) it was 1365 and 200; in the series on HEK-293T (setting [3]), 1241 and 323; with U2OS (setting [4]) it was 417 and 125; in the series with U2OS (setting [6]), 545 and 166; with U2OS (setting [2]), 994 and 281.

As for `CC(C)(O)c1cnc(N2C[C@@]3(CCC[C@](C)(Cn4cnc5ccc(C#N)cc54)C3)OC2=O)cn1` [GSK2798745], the “Population Apoptotic (%)” value in the series with Fibroblast (setting [2]) is 8.33% and 36.36%; in the series on HEK-293T (setting [2]), 2.45% and 26.98%. For the same compound, the “Population Mitochondria Different-Phenotype (%)” value with Fibroblast (setting [2]) was 15.28% and 3.67%; with U2OS (setting [5]) it was 0.62% and 13.64%. Moreover, in the series with HEK-293T (setting [4]), the “Population Healthy Nuclei (%)” value was 59.66% and 14.55%. In addition, the “Population Tubulin-Different-Phenotype (%)” value is 7.14% and 29.17% in the series with HEK-293T (setting [4]); 0.74% and 31.06% in the series with HEK-293T (setting [2]); 4.11% and 47.41% in the series with HEK-293T (setting [3]). For the same compound, the “Population Pyknosed Nuclei (%)” value in the series on HEK-293T (setting [6]) was 20.83% and 64.2%. The “Total Cell Count” value in the series on HEK-293T (setting [6]) was 533 and 162; in the series on HEK-293T (setting [2]), 1420 and 235; in the series on HEK-293T (setting [3]) it was 736 and 219; in the series with U2OS (setting [2]), 903 and 270.

With `CN(C)Cc1cccc(NC(=C2C(=O)Nc3cc(C(=O)N(C)C)ccc32)c2ccccc2)c1`, the “Population Apoptotic (%)” value in the series on Fibroblast (setting [4]) is 8.93% and 32.35%; in the series on Fibroblast (setting [6]), 6.9% and 25%; in the series with HEK-293T (setting [2]), 1.9% and 20.24%. Further, the “Population Fragmented Nuclei (%)” value is 14.92% and 4.36% with Fibroblast (setting [1]); 20.28% and 1.4% in the series on HEK-293T (setting [4]); 16.72% and 3.09% in the series on HEK-293T (setting [6]). In addition, the “Population Mitochondria Different-Phenotype (%)” value in the series on Fibroblast (setting [2]) is 18.86% and 3.59%; in the series on U2OS (setting [5]), 5.45% and 48.44%; in the series on U2OS (setting [6]), 0.39% and 11.93%; in the series with U2OS (setting [1]) it was 5.98% and 64.08%. The “Population Healthy Nuclei (%)” value is 47.64% and 13.29% with HEK-293T (setting [4]); 50.65% and 13.79% with HEK-293T (setting [5]); 68.75% and 22.67% in the series on HEK-293T (setting [1]). Also, the “Population Tubulin-Different-Phenotype (%)” value was 6.93% and 36.84% in the series with HEK-293T (setting [4]); 3.1% and 40.3% in the series with HEK-293T (setting [2]); 7.61% and 64.79% in the series on HEK-293T (setting [3]). Further, the “Population Pyknosed Nuclei (%)” value with HEK-293T (setting [6]) is 14.63% and 65.46%; in the series on HEK-293T (setting [2]), 9.47% and 36.84%. The “Total Cell Count” value with HEK-293T (setting [2]) was 1110 and 231; in the series with HEK-293T (setting [3]) it was 560 and 150; in the series on U2OS (setting [2]), 1000 and 330. Besides, in the series on U2OS (setting [3]), the “Population Membrane Permeable-Phenotype (%)” value was 11.11% and 34.55%.

The values above are taken from ChEMBL document CHEMBL5724801, “EUbOPEN Chemogenomics Library - Multiplex” (2024).
